The campaign covered roughly 310,000 compounds. About 2,200 (0.71%) showed an effect of 50% or more. The effect is printed as a negative number. The list shows a part of the results.
target: human ether-à-go-go-related gene (hERG) potassium channel (human, UniProt Q12809); assay: primary screen, population patch clamp on CHO cells stably expressing hERG
Sequence (Q12809 whole entry, looked up): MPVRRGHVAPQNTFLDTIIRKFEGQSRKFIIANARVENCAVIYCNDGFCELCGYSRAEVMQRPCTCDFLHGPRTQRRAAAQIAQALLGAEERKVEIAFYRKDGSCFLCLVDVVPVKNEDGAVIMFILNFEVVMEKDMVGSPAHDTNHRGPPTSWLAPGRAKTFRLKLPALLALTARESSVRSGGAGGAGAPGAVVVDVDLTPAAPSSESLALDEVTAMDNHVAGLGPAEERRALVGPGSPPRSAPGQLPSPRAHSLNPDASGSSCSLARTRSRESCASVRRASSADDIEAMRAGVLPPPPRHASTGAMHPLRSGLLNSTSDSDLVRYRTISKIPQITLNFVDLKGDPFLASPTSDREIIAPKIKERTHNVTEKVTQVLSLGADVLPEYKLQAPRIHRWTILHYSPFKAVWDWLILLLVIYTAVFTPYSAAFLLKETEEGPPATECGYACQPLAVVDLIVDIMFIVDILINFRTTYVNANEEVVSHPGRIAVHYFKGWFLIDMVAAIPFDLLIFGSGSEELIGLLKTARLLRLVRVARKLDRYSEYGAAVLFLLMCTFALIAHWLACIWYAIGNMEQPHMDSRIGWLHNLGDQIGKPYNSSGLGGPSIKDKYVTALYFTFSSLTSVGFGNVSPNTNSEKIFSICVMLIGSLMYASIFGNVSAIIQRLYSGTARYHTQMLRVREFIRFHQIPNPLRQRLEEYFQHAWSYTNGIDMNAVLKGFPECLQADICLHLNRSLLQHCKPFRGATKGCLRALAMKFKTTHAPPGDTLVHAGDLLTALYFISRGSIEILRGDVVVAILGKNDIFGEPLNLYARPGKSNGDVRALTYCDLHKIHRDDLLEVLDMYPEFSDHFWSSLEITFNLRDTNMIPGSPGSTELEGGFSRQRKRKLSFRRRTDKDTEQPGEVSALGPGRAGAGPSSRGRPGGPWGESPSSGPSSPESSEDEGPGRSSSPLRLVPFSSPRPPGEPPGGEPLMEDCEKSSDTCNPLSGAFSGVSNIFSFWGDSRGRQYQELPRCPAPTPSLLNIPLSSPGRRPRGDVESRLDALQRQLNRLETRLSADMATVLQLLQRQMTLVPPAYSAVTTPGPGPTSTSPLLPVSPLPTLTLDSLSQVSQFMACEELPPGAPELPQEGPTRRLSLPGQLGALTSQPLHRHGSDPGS

Compared with `O=C(O)CCc1ccc(NCc2cccc(Oc3ccccc3)c2)cc1`, `CCOc1cc(CNc2ccc(CNc3ncn[nH]3)cc2)ccc1OCc1ccccc1` is lower in “hERG current change (%, negative = inhibition) at 1uM” value: 19.5% for the first, 8.15% for the second.

Going from `CC(C)Oc1cccc(C(=O)Nc2ccc(Br)cc2F)c1` to `O=C(Nc1cccc(F)c1)c1ccc2c(c1)OCO2`, the “hERG current change (%, negative = inhibition) at 1uM” value rises from 10.7% to 11%.

First: COc1ccc2c(c1)[nH]c1c(=O)n(/N=C/c3ccc(OC)c(COc4ccccn4)c3)cnc12
Second: COCc1cc(/C=N\NC(=O)COc2ccc(Cl)cc2)ccc1OC
The “hERG current change (%, negative = inhibition) at 1uM” value of the first is higher: 16.3% for the first, 14.7% for the second.

Going from `CCN(CC(=O)Nc1cccc(S(=O)(=O)N2CCCCC2)c1)Cc1ccccc1` to `COc1ccc(S(=O)(=O)N2CCCCCC2)cc1NC(=O)Cc1ccccc1`, the “hERG current change (%, negative = inhibition) at 1uM” value rises from -0.224% to 1.32%.

Going from `FC(F)(F)c1ccc(N2CCN(c3ncnc4c3nnn4Cc3ccccc3)CC2)nc1` to `O=C(CN1CCN(c2ccc(C(F)(F)F)cn2)CC1)Nc1ccc2c(c1)OCO2`, the “hERG current change (%, negative = inhibition) at 1uM” value rises from 1.18% to 7.69%.

First: Cc1cccc(NC2SC(=O)N(c3ccccc3)C2=O)c1 (stereo not drawn)
Second: Cc1cccc(NC(=O)c2c(C)nc3ccccn23)c1
The “hERG current change (%, negative = inhibition) at 1uM” value of the first is higher: 13.5% for the first, 3.98% for the second.

Going from `O=C(Nc1cccc(-n2cnnn2)c1)c1ccc(Cl)cc1Cl` to `NNC(=O)c1cccn(Cc2ccc(Cl)cc2Cl)c1=O`, the “hERG current change (%, negative = inhibition) at 1uM” value falls from 13.5% to 10.9%.

Going from `CCN1C(=O)/C(=C2\Sc3ccccc3N2CC)OC1=S` to `CCN1CCN(C(=O)CCCn2c(C)c3cnn(-c4ccccc4)c(=O)c3c2C)CC1`, the “hERG current change (%, negative = inhibition) at 1uM” value falls from 15.2% to 13.8%.

First: Cc1ccc(N2CCN(S(=O)(=O)c3c(C)nc4scc(C)n4c3=O)CC2)c(C)c1
Second: Cc1cc(C)c(S(=O)(=O)NCc2cn3c(C)csc3n2)cc1C
The “hERG current change (%, negative = inhibition) at 1uM” value of the first is higher: 15.3% for the first, -8.49% for the second.

Going from `COc1cc(SC)ccc1C(=O)OCC(=O)NC1CCCC1` to `NS(=O)(=O)c1ccc(NC(=O)CSC2CCCCC2)cc1`, the “hERG current change (%, negative = inhibition) at 1uM” value falls from 9.49% to 3.32%.

Compared with `O=C(O)CC(SCC(=O)Nc1ccc(S(=O)(=O)N2CCCC2)cc1)C(=O)O` (stereo not drawn), `CC(C)c1nnc(NC(=O)C2CCN(S(=O)(=O)c3ccc(-n4cnnn4)cc3)CC2)s1` is lower in “hERG current change (%, negative = inhibition) at 1uM” value: 9.33% for the first, 6.23% for the second.

Going from `CN(C)CCCN(C(=O)c1sc2ccccc2c1Cl)c1nc2c(F)cccc2s1.Cl` to `Cc1ccc(Nc2nc3ccccc3s2)cc1`, the “hERG current change (%, negative = inhibition) at 1uM” value falls from 8.6% to 1.66%.

Going from `CCCCN1C(=O)C(NC(=O)c2cccnc2)(C(F)(F)F)C2=C1CC(C)(C)CC2=O` (stereo not drawn) to `CC1=C(C(=O)NC2CC(C)(C)Cc3c2cnn3-c2cccc(F)c2)OCCO1` (stereo not drawn), the “hERG current change (%, negative = inhibition) at 1uM” value falls from 3.61% to -3.59%.

Going from `N#Cc1c(Nc2ccccc2)sc(C(=O)c2ccccc2)c1N` to `O=C(Oc1cccccc1=O)c1ccccc1`, the “hERG current change (%, negative = inhibition) at 1uM” value falls from 5.63% to 5.12%.

Compared with `O=C(O)c1cc(NN=Nc2cccc(S(=O)(=O)O)c2)cc([N+](=O)[O-])c1`, `COC(=O)c1cc(C(=O)N2CCN(c3cccc(C)c3C)CC2)cc([N+](=O)[O-])c1` is lower in “hERG current change (%, negative = inhibition) at 1uM” value: 5.21% for the first, -8.86% for the second.

Going from `CCNC(=O)NC(=O)CSc1nnc(-c2c[nH]c3ccccc23)o1` to `CCOc1ccccc1NC(=O)CSc1cn[nH]n1`, the “hERG current change (%, negative = inhibition) at 1uM” value falls from 4.23% to -3.65%.

Going from `O=C(COc1cc(Cl)ccc1Cl)Nc1nnc(C2CC2)s1` to `Cc1nnsc1C(=O)Nc1ccccc1Cl`, the “hERG current change (%, negative = inhibition) at 1uM” value falls from 12.5% to 2.59%.

First: O=C(CCCc1c[nH]c2ccccc12)N1CCN(c2ccc(N3CCOCC3)nn2)CC1
Second: O=C(c1n[nH]c2ccccc12)N1CCOCC1
The “hERG current change (%, negative = inhibition) at 1uM” value of the first is lower: -0.829% for the first, 13.4% for the second.

First: Cc1cccc(N2CCN(CC(=O)NCc3ccc(Cl)cc3)CC2)c1C
Second: Cc1[nH]c(-c2ccc(F)cc2)cc1C(=O)N1CCN(c2ccccc2F)CC1
The “hERG current change (%, negative = inhibition) at 1uM” value of the first is higher: -3.16% for the first, -25% for the second.

Going from `COCCCn1c(SCC(=O)NC(C)C)nnc1-c1ccccc1` to `Cc1cnc(NC(=O)CSc2nnc(-c3ccccc3)n2Cc2ccccc2)s1`, the “hERG current change (%, negative = inhibition) at 1uM” value rises from -0.766% to 6.59%.

Going from `Cc1cc(C)c(NC(=O)c2cccc(NC(=O)c3ccco3)c2)c(C)c1` to `CCC(=O)Nc1cccc(NC(=S)NC(=O)c2ccccc2C)c1`, the “hERG current change (%, negative = inhibition) at 1uM” value falls from 5.91% to 5.27%.

Compared with `O=C(O)CC1S/C(=N/N=C/c2ccccn2)NC1=O` (stereo not drawn), `CC(=O)NC1=NN(C(C)=O)C(c2sccc2C)S1` (stereo not drawn) is lower in “hERG current change (%, negative = inhibition) at 1uM” value: 15.3% for the first, 13.6% for the second.

Going from `COc1cccc(/C=C2/C(=O)NN(c3ccc(C)c(C)c3)C2=O)c1` to `COc1ccc(NCc2cc3cc(OC)ccc3[nH]c2=O)cc1`, the “hERG current change (%, negative = inhibition) at 1uM” value rises from 3.12% to 3.24%.

Going from `Cc1cccc(CCNC(=O)C2CCC(=O)N2Cc2ccc(F)cc2)c1` (stereo not drawn) to `CC(=O)c1cccc(NC(=O)Cn2nc(-c3ccccc3Cl)ccc2=O)c1`, the “hERG current change (%, negative = inhibition) at 1uM” value falls from -0.0467% to -1.66%.

Compared with `NC(=S)NN=C(Cc1ccccc1)Cc1ccccc1`, `COc1ccccc1N=c1sc2ccccc2n1C` is lower in “hERG current change (%, negative = inhibition) at 1uM” value: 8.05% for the first, -6.03% for the second.

Going from `CCOC(=O)N1CCN(C(=O)c2cc(COc3ccc(OC)cc3Cl)on2)CC1` to `COc1cc(C(=O)N/N=C/c2ccc(OC(=O)N3CCOCC3)cc2)cc(OC)c1OC`, the “hERG current change (%, negative = inhibition) at 1uM” value falls from 9.02% to -2.8%.

First: Cc1cc(C)cc(NC(=O)CS(=O)(=O)c2ccccc2)c1
Second: Cc1ccnc(NS(=O)(=O)c2ccc(NC(=O)CCS(=O)(=O)c3ccccc3)cc2)n1
The “hERG current change (%, negative = inhibition) at 1uM” value of the first is lower: 15.4% for the first, 20.7% for the second.

Compared with `COc1ccc(NC(=O)CN2C(=O)CSC(C)C2=O)cc1` (stereo not drawn), `O=C(COC(=O)c1cccc(Cl)c1Cl)NCCN1C(=O)CSC1=O` is lower in “hERG current change (%, negative = inhibition) at 1uM” value: 8.98% for the first, 6.81% for the second.

Going from `COc1ccc2cc(C(=O)OC(C)C)sc(=O)c2c1OC` to `COc1ccc(CNS(=O)(=O)c2csc(C(N)=O)c2)cc1OC`, the “hERG current change (%, negative = inhibition) at 1uM” value falls from 7.17% to 7.01%.

Going from `O=C(COC(=O)CNC(=O)c1ccco1)NCCN1C(=O)CSC1=O` to `CCOCCCNC(=O)C(c1ccccc1)N(Cc1ccc2c(c1)OCO2)C(=O)c1ccccc1O` (stereo not drawn), the “hERG current change (%, negative = inhibition) at 1uM” value rises from 10.9% to 15.2%.

First: CCCS(=O)(=O)N1CCN(c2cc3c(cc2[N+](=O)[O-])n(C)c(=O)n3C)CC1
Second: Cc1ccc(S(=O)(=O)N2CCC(C(N)=O)CC2)c(C)c1C
The “hERG current change (%, negative = inhibition) at 1uM” value of the first is higher: -2.36% for the first, -4.89% for the second.

First: CCOC(=O)[C@@H]1[C@H]2COc3ccccc3[C@H]2N2C(=O)N(c3cccc(F)c3)C(=O)[C@]12C
Second: CCOC(=O)c1nc(Nc2ccc(C(C)=O)cc2)c2ccccc2n1
The “hERG current change (%, negative = inhibition) at 1uM” value of the first is lower: 0.271% for the first, 10.8% for the second.

Going from `Cc1oc2ccc(OCc3ccc(F)cc3Cl)cc2c1C(=O)O` to `Cc1ccc(NC(=O)c2ccc3c(c2)OCO3)cc1Cl`, the “hERG current change (%, negative = inhibition) at 1uM” value falls from 15.5% to 5.25%.

First: COc1cccc(C(=O)OC(C)CN2CCCC2)c1.Cl (stereo not drawn)
Second: COc1cccc(C(=O)CSc2nc3cccnc3n2C)c1
The “hERG current change (%, negative = inhibition) at 1uM” value of the first is higher: 10.5% for the first, 8.81% for the second.

Going from `O=C(NNC(=O)c1cccc(Br)c1)C(=O)N1CCCCC1` to `S=C(NCCN1CCCCC1)Nc1ccc(Br)cc1`, the “hERG current change (%, negative = inhibition) at 1uM” value falls from 5.91% to -31.2%.

First: Cc1cc(=O)[nH]c(SCc2cccc(Br)c2)n1
Second: N#Cc1ccc(CSc2nnc3[nH]c(=O)cc(N)n23)cc1
The “hERG current change (%, negative = inhibition) at 1uM” value of the first is higher: 6.78% for the first, 5.58% for the second.

Compared with `O[C@@H]1C2CCCC1[C@]1(O)CCCCC1C2` (stereo partly drawn), `CCOc1ccc(CC(=O)NC2CC(C)(C)N(C)C(C)(C)C2)cc1OCC` is lower in “hERG current change (%, negative = inhibition) at 1uM” value: 13.5% for the first, 8.83% for the second.

Going from `CCCCN(c1ccccc1)c1ncnc(N)c1[N+](=O)[O-]` to `COC(=O)c1[nH]c2ccc(C)cc2c1NC(=O)c1ccccc1[N+](=O)[O-]`, the “hERG current change (%, negative = inhibition) at 1uM” value falls from 12% to -1.11%.

Compared with `COc1ccc(Cl)cc1CN1CCOCC1.Cl`, `COc1ccc(C(C)=O)cc1COC(=O)c1ccc2c(c1)OCO2` is higher in “hERG current change (%, negative = inhibition) at 1uM” value: 19.6% for the first, 21.5% for the second.

First: Cc1ccc(NC(=O)Cn2nnc(C(=O)NCc3ccc4c(c3)OCO4)c2N)cc1
Second: Cc1ccc(OCc2nnc(SCC(=O)c3cccc([N+](=O)[O-])c3)n2C)cc1
The “hERG current change (%, negative = inhibition) at 1uM” value of the first is higher: 14.2% for the first, -1.17% for the second.

First: O=C(NNc1ccc(O)cc1)c1ccc(Br)cc1
Second: O=C1CCCC2=C1C(c1ccc(Br)cc1)c1c([nH]c(=S)[nH]c1=O)N2 (stereo not drawn)
The “hERG current change (%, negative = inhibition) at 1uM” value of the first is lower: -1.92% for the first, 6.34% for the second.

First: COc1ccc(/C=N/Nc2nnc(Cc3ccc(OC)c(OC)c3)c(=O)[nH]2)cc1OC
Second: Cc1nn(-c2ccccc2)cc1C(c1c(N)[nH]c(=S)[nH]c1=O)c1c(N)[nH]c(=S)[nH]c1=O
The “hERG current change (%, negative = inhibition) at 1uM” value of the first is higher: 10.5% for the first, 9.75% for the second.

Going from `CCCCc1c(C)nc2c(OC)cccc2c1SCC(=O)O` to `CC(C)(C)n1nc2c(c1NC(=O)c1cc3ccccc3o1)CSC2`, the “hERG current change (%, negative = inhibition) at 1uM” value rises from 6.75% to 8.58%.

First: Cc1ccc2nc(SC(C)C(=O)N3CC(C)OC(C)C3)[nH]c2c1 (stereo not drawn)
Second: CSc1cccc(NC(=O)c2sc3nc4n(c(=O)c3c2C)CCC4)c1
The “hERG current change (%, negative = inhibition) at 1uM” value of the first is lower: 11.6% for the first, 15.6% for the second.

First: CN1CCN(c2nnc(-c3cccs3)c3ccccc23)CC1
Second: Cc1ccc(-c2csc(=Nc3cccnc3)n2CCCn2ccnc2)cc1C
The “hERG current change (%, negative = inhibition) at 1uM” value of the first is higher: -4.7% for the first, -22.2% for the second.

Reference: PMC4336329 (PLoS ONE, 2015)
